# From article PMC8144413
# Chains of the proteins cited; added tags and fusions are not shown.
# UniProt O94953: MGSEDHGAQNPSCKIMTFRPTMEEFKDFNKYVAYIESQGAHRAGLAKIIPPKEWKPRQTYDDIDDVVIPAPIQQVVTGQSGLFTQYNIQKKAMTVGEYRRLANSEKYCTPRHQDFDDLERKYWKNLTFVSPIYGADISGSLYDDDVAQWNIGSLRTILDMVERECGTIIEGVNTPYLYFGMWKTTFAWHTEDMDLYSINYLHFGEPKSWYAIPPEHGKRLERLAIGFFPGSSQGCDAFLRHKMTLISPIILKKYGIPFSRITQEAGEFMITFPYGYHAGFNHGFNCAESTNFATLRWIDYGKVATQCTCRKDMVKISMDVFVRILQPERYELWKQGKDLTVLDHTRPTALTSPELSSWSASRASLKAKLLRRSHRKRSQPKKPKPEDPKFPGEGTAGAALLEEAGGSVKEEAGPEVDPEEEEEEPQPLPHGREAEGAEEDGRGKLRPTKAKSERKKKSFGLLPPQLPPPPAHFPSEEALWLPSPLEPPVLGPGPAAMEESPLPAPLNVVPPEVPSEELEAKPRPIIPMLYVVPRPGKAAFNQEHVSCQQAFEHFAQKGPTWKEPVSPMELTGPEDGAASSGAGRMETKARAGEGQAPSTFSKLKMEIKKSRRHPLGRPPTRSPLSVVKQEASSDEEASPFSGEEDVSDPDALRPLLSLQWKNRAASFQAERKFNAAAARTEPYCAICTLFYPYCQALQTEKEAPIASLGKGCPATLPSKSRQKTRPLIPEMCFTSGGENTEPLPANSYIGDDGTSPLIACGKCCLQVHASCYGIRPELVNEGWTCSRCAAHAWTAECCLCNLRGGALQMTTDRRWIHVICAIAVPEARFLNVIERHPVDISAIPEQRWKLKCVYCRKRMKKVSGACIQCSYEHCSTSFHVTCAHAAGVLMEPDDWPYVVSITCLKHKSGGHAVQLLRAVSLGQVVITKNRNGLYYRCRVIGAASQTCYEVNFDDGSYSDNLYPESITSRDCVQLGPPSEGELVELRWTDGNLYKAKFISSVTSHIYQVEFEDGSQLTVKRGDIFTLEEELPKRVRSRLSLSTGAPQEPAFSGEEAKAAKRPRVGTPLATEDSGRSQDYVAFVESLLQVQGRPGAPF
# UniProt P01100: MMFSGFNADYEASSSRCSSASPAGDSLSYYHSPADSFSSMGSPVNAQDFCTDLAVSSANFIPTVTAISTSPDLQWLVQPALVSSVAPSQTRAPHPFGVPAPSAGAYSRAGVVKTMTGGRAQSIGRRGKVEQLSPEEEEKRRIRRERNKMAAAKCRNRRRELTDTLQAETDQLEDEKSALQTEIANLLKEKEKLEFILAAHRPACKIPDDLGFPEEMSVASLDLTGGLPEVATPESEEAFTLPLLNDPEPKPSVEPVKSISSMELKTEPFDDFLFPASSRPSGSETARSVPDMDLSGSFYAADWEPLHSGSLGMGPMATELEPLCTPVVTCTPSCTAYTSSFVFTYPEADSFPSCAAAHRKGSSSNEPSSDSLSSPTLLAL
# UniProt Q04206: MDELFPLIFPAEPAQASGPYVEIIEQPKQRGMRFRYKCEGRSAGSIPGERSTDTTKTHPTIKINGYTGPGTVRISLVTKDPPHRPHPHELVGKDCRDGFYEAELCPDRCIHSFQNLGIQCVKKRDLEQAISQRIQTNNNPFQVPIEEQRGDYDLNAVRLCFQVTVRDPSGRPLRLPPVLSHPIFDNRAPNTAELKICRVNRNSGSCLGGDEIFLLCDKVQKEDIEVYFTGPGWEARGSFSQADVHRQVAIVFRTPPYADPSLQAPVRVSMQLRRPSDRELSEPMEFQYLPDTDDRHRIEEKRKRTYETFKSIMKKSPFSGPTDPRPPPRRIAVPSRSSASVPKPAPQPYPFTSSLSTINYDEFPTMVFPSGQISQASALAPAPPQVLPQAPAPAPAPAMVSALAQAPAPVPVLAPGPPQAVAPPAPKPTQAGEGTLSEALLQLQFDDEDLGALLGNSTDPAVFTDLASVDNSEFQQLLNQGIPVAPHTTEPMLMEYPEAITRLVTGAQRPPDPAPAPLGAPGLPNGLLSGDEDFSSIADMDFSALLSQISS
# Where two headings read alike, the source gives them in different places. Results are given in words; binding and its absence hold for the method and conditions named. Binding seen in cells or lysates may run through a third protein. Some results given as binding are weak or reduced against the parent protein; the word gives no strength. For part of these data: Tags and fused reporters may be left off the sequences shown.
# T1: endogenous KDM4B (mouse bone marrow-derived macrophages) (mouse (endogenous in BMMs)) (UniProt Q91VY5)
# T1 sequence: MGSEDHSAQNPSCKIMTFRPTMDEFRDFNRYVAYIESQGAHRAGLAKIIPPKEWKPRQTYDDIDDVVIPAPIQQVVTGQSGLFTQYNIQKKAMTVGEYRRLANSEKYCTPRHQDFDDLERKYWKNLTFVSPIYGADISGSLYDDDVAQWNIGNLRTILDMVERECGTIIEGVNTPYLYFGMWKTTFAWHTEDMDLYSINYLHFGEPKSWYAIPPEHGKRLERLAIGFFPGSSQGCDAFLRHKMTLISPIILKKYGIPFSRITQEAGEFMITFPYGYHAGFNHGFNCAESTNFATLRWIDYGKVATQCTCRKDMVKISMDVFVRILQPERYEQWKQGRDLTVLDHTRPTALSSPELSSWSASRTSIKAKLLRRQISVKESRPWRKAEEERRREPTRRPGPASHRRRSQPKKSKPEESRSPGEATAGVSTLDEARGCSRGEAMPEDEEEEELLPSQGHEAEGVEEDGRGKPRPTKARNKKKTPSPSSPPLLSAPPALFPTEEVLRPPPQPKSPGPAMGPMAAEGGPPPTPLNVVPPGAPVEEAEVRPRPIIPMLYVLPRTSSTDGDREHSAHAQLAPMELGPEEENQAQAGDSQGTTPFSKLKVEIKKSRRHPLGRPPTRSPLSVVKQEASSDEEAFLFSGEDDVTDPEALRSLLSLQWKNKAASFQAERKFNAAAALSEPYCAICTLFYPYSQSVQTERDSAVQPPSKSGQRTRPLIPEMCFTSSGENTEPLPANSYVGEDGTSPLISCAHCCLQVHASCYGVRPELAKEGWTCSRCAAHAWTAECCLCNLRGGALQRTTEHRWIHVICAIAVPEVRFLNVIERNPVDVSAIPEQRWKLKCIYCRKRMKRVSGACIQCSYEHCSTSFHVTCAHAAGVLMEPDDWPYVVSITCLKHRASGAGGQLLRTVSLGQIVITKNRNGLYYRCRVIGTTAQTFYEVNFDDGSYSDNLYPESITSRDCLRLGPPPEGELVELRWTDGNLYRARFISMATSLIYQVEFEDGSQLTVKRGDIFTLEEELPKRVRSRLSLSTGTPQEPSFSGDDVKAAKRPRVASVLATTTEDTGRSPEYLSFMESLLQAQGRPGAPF
# B1: HA-CCAR1 (protein, UniProt Q8CH18 1-1146)
# chain: MAQFGGQKNPPWATQFTATAVSQPAALGVQQPSLLGASPTIYTQQTALAAAGLTTQTPANYQLTQTAALQQQAAAVLQQQYSQPQQALYSVQQQLQQPQQTILTQPAVALPTSLSLSTPQPAAQITVSYPTPRSSQQQTQPQKQRVFTGVVTKLHDTFGFVDEDVFFQLGAVKGKTPQVGDRVLVEATYNPNMPFKWNAQRIQTLPNQNQSQTQPLLKTPTAVIQPIVPQTTFGVQAQPQPQSLLQAQISAASITPLLQTQPQPLLQQPQQKAGLLQPPVRIVSQPQPARRLDPPSRFSGRNDRGDQVPNRKDDRSRERDRERRRSRERSPQRKRSRERSPRRERERSPRRVRRVVPRYTVQFSKFSLDCPSCDMMELRRRYQNLYIPSDFFDAQFTWVDAFPLSRPFQLGNYCNFYVMHREVESLEKNMAVLDPPDADHLYSAKVMLMASPSMEDLYHKSCALAEDPQDLRDGFQHPARLVKFLVGMKGKDEAMAIGGHWSPSLDGPNPEKDPSVLIKTAIRCCKALTGIDLSVCTQWYRFAEIRYHRPEETHKGRTVPAHVETVVLFFPDVWHCLPTRSEWETLSRGYKQQLVEKLQGERKKADGEQDEEEKDDGEVKEIATPTHWSKLDPKAMKVNDLRKELESRALSSKGLKSQLIARLTKQLKIEEQKEEQKELEKSEKEEEDEDDKKSEDDKEEEERKRQEEVERQRQERRYILPDEPAIIVHPNWAAKSGKFDCSIMSLSVLLDYRLEDNKEHSFEVSLFAELFNEMLQRDFGVRIYKSLLSLPEKEDKKDKEKKSKKEERKDKKEEREDDIDEPKPKRRKSGDDKDKKEDRDERKKEEKRKDDSKDDDETEEDNNQDEYDPMEAEEAEDEDDDREEEEVKRDDKRDVSRYCKDRPAKDKEKEKPQMVTVNRDLLMAFVYFDQSHCGYLLEKDLEEILYTLGLHLSRAQVKKLLNKVVLRESCFYRKLTDTSKDDENHEESEALQEDMLGNRLLLPTPTIKQESKDGEENVGLIVYNGAMVDVGSLLQKLEKSEKVRAEVEQKLQLLEEKTDEDGKTILNLENSNKSLSGELREVKKDLGQLQENLEVSENMNLQFENQLNKTLRNLSTVMDDIHTVLKKDNVKSEDRDEKSKENGSGV
# B2: endogenous CCAR1 (mouse bone marrow-derived macrophages) (protein, UniProt Q8CH18 1-1146)
# chain: B1 chain
# B3: C-terminal region of CCAR1 (residues 661–1146), HA-tagged (domain or fragment, UniProt Q8CH18 661-1146)
# chain: ARLTKQLKIEEQKEEQKELEKSEKEEEDEDDKKSEDDKEEEERKRQEEVERQRQERRYILPDEPAIIVHPNWAAKSGKFDCSIMSLSVLLDYRLEDNKEHSFEVSLFAELFNEMLQRDFGVRIYKSLLSLPEKEDKKDKEKKSKKEERKDKKEEREDDIDEPKPKRRKSGDDKDKKEDRDERKKEEKRKDDSKDDDETEEDNNQDEYDPMEAEEAEDEDDDREEEEVKRDDKRDVSRYCKDRPAKDKEKEKPQMVTVNRDLLMAFVYFDQSHCGYLLEKDLEEILYTLGLHLSRAQVKKLLNKVVLRESCFYRKLTDTSKDDENHEESEALQEDMLGNRLLLPTPTIKQESKDGEENVGLIVYNGAMVDVGSLLQKLEKSEKVRAEVEQKLQLLEEKTDEDGKTILNLENSNKSLSGELREVKKDLGQLQENLEVSENMNLQFENQLNKTLRNLSTVMDDIHTVLKKDNVKSEDRDEKSKENGSGV
# B4: HA-NFATc1 (protein, UniProt O95644 1-943)
# chain: MPSTSFPVPSKFPLGPAAAVFGRGETLGPAPRAGGTMKSAEEEHYGYASSNVSPALPLPTAHSTLPAPCHNLQTSTPGIIPPADHPSGYGAALDGGPAGYFLSSGHTRPDGAPALESPRIEITSCLGLYHNNNQFFHDVEVEDVLPSSKRSPSTATLSLPSLEAYRDPSCLSPASSLSSRSCNSEASSYESNYSYPYASPQTSPWQSPCVSPKTTDPEEGFPRGLGACTLLGSPRHSPSTSPRASVTEESWLGARSSRPASPCNKRKYSLNGRQPPYSPHHSPTPSPHGSPRVSVTDDSWLGNTTQYTSSAIVAAINALTTDSSLDLGDGVPVKSRKTTLEQPPSVALKVEPVGEDLGSPPPPADFAPEDYSSFQHIRKGGFCDQYLAVPQHPYQWAKPKPLSPTSYMSPTLPALDWQLPSHSGPYELRIEVQPKSHHRAHYETEGSRGAVKASAGGHPIVQLHGYLENEPLMLQLFIGTADDRLLRPHAFYQVHRITGKTVSTTSHEAILSNTKVLEIPLLPENSMRAVIDCAGILKLRNSDIELRKGETDIGRKNTRVRLVFRVHVPQPSGRTLSLQVASNPIECSQRSAQELPLVEKQSTDSYPVVGGKKMVLSGHNFLQDSKVIFVEKAPDGHHVWEMEAKTDRDLCKPNSLVVEIPPFRNQRITSPVHVSFYVCNGKRKRSQYQRFTYLPANVPIIKTEPTDDYEPAPTCGPVSQGLSPLPRPYYSQQLAMPPDPSSCLVAGFPPCPQRSTLMPAAPGVSPKLHDLSPAAYTKGVASPGHCHLGLPQPAGEAPAVQDVPRPVATHPGSPGQPPPALLPQQVSAPPSSSCPPGLEHSLCPSSPSPPLPPATQEPTCLQPCSPACPPATGRPQHLPSTVRRDESPTAGPRLLPEVHEDGSPNLAPIPVTVKREPEELDQLYLDDVNEIIRNDLSSTSTHS
# Assays:
# [1] = target: FLAG-KDM4B WT (UniProt O94953); experiment: co-IP; transfected cells (293T named in the methods); NP-40 lysis buffer (10 mM Tris pH 7.9, 150 mM NaCl, 1 mM EDTA, 5% glycerol); immunoprecipitation with anti-FLAG antibody, immunoblot with anti-HA antibody
# [2] = target: FLAG-KDM4B WT (UniProt O94953); experiment: as above; remark: listed apart in the source
# [3] = target: T1, endogenous KDM4B (mouse bone marrow-derived macrophages) (mouse (endogenous in BMMs)); experiment: co-IP; endogenous proteins; BMMs stimulated with RANKL (100 ng/mL, 30 min); immunoprecipitation with anti-KDM4B antibody, immunoblot with anti-CCAR1 antibody
Molecule,binding [1],binding [2],also measured
HA-c-Fos (from UniProt P01100 1-380),no binding,–,–
HA-p65 (from UniProt Q04206 1-551),binds,–,–
B1,–,binds,–
B2,–,–,binding [3]: binds
B3,–,binds,–
B4,–,no binding,–
